For assay [1], the target named is Myc-cIAP1 (UniProt Q13490). Put plainly: co-IP; HEK-293 cells cotransfected with tagged plasmids, lysed after 24 h in cell lysis buffer with protease inhibitors; immunoprecipitation with Myc-Tag, HA-Tag or anti-Flag (M2) magnetic beads, Western blot of the tags.
The target of assay [2] is Myc-XIAP (UniProt P98170). The assay is described as above.
For assay [3], the target named is endogenous survivin (human (endogenous in HCT-8 and HEK-293)) (UniProt O15392). Put plainly: co-IP; HCT-8 cell lysates, endogenous proteins; immunoprecipitation with anti-cIAP1 or anti-survivin antibody, control rabbit IgG isotype; Western blot. A general note: Immunoblotting shows a protein as a band on a membrane.
For assay [4], the target named is endogenous cIAP1 (human (endogenous in HCT-8 and HEK-293)) (UniProt Q13490). The assay is described as above.
Assay [5] concerns the target endogenous survivin (human (endogenous in HCT-8 and HEK-293)) (UniProt O15392). Put plainly: co-IP; HEK-293 cells transfected with empty vector or Myc-USP36; immunoprecipitation of endogenous proteins with anti-cIAP1 or anti-survivin antibody; Western blot.
Assay [6] has as its target endogenous cIAP1 (human (endogenous in HCT-8 and HEK-293)) (UniProt Q13490). Described as above.
Assay [7] addresses HA-survivin (UniProt O15392). Put plainly: co-IP; HEK-293 cells cotransfected with tagged plasmids, lysed after 24 h in cell lysis buffer with protease inhibitors; immunoprecipitation with Myc-Tag, HA-Tag or anti-Flag (M2) magnetic beads, Western blot of the tags.
In assay [8] the target is Flag-Mcl-1 (UniProt Q07820). Described as above.
The target of assay [9] is Flag-Bcl-xL (UniProt Q07817). The assay is described as above.
For assay [10], the target named is Flag-p65 (UniProt Q04206). Described as above.

Protein sequences, listed by entry. Tags and fused reporters are not part of them.
UniProt Q13490: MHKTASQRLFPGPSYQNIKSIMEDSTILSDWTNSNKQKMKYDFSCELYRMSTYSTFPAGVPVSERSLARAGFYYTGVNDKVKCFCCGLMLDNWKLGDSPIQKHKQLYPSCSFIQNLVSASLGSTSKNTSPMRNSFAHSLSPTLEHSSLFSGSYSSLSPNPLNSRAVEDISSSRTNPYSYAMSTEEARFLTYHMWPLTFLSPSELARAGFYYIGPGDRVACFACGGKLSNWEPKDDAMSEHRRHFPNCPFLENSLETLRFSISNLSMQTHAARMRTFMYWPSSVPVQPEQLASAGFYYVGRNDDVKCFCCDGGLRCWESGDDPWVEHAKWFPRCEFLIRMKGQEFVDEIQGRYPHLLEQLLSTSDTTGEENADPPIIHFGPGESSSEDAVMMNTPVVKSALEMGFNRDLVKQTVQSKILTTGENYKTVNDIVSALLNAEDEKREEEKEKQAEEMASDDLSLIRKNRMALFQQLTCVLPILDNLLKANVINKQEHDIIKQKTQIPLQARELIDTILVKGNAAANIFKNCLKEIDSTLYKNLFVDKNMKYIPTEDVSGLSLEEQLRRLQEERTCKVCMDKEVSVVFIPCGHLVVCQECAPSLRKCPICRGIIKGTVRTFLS
UniProt P98170: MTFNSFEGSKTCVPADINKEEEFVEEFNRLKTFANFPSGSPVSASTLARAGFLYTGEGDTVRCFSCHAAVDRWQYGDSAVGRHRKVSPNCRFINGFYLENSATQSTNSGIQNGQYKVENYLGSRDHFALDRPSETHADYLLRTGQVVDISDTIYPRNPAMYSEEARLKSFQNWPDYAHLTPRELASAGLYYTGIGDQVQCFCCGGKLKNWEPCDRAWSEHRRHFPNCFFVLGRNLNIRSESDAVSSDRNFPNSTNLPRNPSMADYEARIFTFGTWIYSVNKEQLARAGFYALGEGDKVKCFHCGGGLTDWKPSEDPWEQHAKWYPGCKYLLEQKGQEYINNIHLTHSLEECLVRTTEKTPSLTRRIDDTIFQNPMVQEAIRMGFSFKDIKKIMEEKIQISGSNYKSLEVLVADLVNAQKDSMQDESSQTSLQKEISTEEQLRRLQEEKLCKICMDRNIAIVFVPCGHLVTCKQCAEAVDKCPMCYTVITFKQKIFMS
UniProt O15392: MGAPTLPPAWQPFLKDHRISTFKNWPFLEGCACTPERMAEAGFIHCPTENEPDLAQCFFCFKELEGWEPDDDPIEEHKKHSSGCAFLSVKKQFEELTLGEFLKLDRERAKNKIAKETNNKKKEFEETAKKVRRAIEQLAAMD
UniProt Q07820: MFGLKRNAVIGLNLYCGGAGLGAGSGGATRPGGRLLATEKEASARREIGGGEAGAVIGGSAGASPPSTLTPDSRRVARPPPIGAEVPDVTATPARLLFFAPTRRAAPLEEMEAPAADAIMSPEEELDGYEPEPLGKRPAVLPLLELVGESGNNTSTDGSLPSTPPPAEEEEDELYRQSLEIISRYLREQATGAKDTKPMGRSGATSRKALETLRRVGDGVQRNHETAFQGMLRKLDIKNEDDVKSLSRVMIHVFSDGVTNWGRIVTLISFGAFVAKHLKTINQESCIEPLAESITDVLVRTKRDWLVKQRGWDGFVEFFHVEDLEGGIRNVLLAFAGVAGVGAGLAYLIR
UniProt Q07817: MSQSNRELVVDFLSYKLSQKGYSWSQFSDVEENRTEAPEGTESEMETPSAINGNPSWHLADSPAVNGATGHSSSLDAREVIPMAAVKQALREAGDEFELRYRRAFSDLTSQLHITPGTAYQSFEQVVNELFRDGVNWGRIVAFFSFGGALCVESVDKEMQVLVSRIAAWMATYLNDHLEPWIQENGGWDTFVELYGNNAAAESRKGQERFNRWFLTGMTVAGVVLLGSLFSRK
UniProt Q04206: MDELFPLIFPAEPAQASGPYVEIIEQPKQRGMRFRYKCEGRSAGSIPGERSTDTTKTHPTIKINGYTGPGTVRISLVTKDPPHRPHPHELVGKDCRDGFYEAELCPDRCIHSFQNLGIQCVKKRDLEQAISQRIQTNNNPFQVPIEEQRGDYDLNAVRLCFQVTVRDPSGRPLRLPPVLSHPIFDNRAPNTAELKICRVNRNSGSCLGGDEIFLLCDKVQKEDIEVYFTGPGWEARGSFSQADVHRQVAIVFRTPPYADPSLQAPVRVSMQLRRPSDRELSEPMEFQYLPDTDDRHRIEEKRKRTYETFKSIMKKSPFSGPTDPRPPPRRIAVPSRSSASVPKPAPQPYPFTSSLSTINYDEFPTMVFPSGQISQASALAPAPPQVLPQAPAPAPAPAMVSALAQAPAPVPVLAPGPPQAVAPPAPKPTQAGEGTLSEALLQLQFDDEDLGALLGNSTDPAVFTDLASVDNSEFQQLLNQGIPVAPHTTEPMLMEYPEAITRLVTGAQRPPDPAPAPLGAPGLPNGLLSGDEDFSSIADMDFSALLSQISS

No constants are given. Whether binding was seen depends on the method and setting. Binding seen in cells or lysates may run through a third protein. Some binding calls cover weakened binding; strength is not graded here. For part of these data: Sequences can lack the tags named with a protein.

B1: HA-USP36 (Flag-HA-USP36), full length, WT (enzyme, UniProt Q9P275 1-1123)
chain: MPIVDKLKEALKPGRKDSADDGELGKLLASSAKKVLLQKIEFEPASKSFSYQLEALKSKYVLLNPKTEGASRHKSGDDPPARRQGSEHTYESCGDGVPAPQKVLFPTERLSLRWERVFRVGAGLHNLGNTCFLNATIQCLTYTPPLANYLLSKEHARSCHQGSFCMLCVMQNHIVQAFANSGNAIKPVSFIRDLKKIARHFRFGNQEDAHEFLRYTIDAMQKACLNGCAKLDRQTQATTLVHQIFGGYLRSRVKCSVCKSVSDTYDPYLDVALEIRQAANIVRALELFVKADVLSGENAYMCAKCKKKVPASKRFTIHRTSNVLTLSLKRFANFSGGKITKDVGYPEFLNIRPYMSQNNGDPVMYGLYAVLVHSGYSCHAGHYYCYVKASNGQWYQMNDSLVHSSNVKVVLNQQAYVLFYLRIPGSKKSPEGLISRTGSSSLPGRPSVIPDHSKKNIGNGIISSPLTGKRQDSGTMKKPHTTEEIGVPISRNGSTLGLKSQNGCIPPKLPSGSPSPKLSQTPTHMPTILDDPGKKVKKPAPPQHFSPRTAQGLPGTSNSNSSRSGSQRQGSWDSRDVVLSTSPKLLATATANGHGLKGNDESAGLDRRGSSSSSPEHSASSDSTKAPQTPRSGAAHLCDSQETNCSTAGHSKTPPSGADSKTVKLKSPVLSNTTTEPASTMSPPPAKKLALSAKKASTLWRATGNDLRPPPPSPSSDLTHPMKTSHPVVASTWPVHRARAVSPAPQSSSRLQPPFSPHPTLLSSTPKPPGTSEPRSCSSISTALPQVNEDLVSLPHQLPEASEPPQSPSEKRKKTFVGEPQRLGSETRLPQHIREATAAPHGKRKRKKKKRPEDTAASALQEGQTQRQPGSPMYRREGQAQLPAVRRQEDGTQPQVNGQQVGCVTDGHHASSRKRRRKGAEGLGEEGGLHQDPLRHSCSPMGDGDPEAMEESPRKKKKKKRKQETQRAVEEDGHLKCPRSAKPQDAVVPESSSCAPSANGWCPGDRMGLSQAPPVSWNGERESDVVQELLKYSSDKAYGRKVLTWDGKMSAVSQDAIEDSRQARTETVVDDWDEEFDRGKEKKIKKFKREKRRNFNAFQKLQTRRNFWSVTHPAKAASLSYRR
Regarding B1, the binding result is given as “binds” in assay [1] and “no binding” in assay [2].

B2: endogenous USP36 (enzyme, UniProt Q9P275 1-1123)
chain: B1 chain
B2: the binding entry in assay [3] and in assay [4] was “binds” each time.

B3: Myc-USP36 (ubiquitin-specific protease 36), full length, WT (enzyme, UniProt Q9P275 1-1123)
chain: B1 chain
In the case of B3, the binding result is listed as “binds” in [5]; “binds” in assay [6]; “binds” in assay [7]; “no binding” in assay [8]; “no binding” in [9]; “no binding” in assay [10].

B4: HA-USP36 (801–1121 aa), C-terminal domain (domain or fragment, UniProt Q9P275 801-1121)
chain: ASEPPQSPSEKRKKTFVGEPQRLGSETRLPQHIREATAAPHGKRKRKKKKRPEDTAASALQEGQTQRQPGSPMYRREGQAQLPAVRRQEDGTQPQVNGQQVGCVTDGHHASSRKRRRKGAEGLGEEGGLHQDPLRHSCSPMGDGDPEAMEESPRKKKKKKRKQETQRAVEEDGHLKCPRSAKPQDAVVPESSSCAPSANGWCPGDRMGLSQAPPVSWNGERESDVVQELLKYSSDKAYGRKVLTWDGKMSAVSQDAIEDSRQARTETVVDDWDEEFDRGKEKKIKKFKREKRRNFNAFQKLQTRRNFWSVTHPAKAASLSY
For B4, the binding entry in [1] was “binds”.

B5: Myc-USP36 (1–420 aa), N-terminal USP domain (domain or fragment, UniProt Q9P275 1-420)
chain: MPIVDKLKEALKPGRKDSADDGELGKLLASSAKKVLLQKIEFEPASKSFSYQLEALKSKYVLLNPKTEGASRHKSGDDPPARRQGSEHTYESCGDGVPAPQKVLFPTERLSLRWERVFRVGAGLHNLGNTCFLNATIQCLTYTPPLANYLLSKEHARSCHQGSFCMLCVMQNHIVQAFANSGNAIKPVSFIRDLKKIARHFRFGNQEDAHEFLRYTIDAMQKACLNGCAKLDRQTQATTLVHQIFGGYLRSRVKCSVCKSVSDTYDPYLDVALEIRQAANIVRALELFVKADVLSGENAYMCAKCKKKVPASKRFTIHRTSNVLTLSLKRFANFSGGKITKDVGYPEFLNIRPYMSQNNGDPVMYGLYAVLVHSGYSCHAGHYYCYVKASNGQWYQMNDSLVHSSNVKVVLNQQAYVLFY
For the molecule B5, the binding result in assay [7] is listed as “binds”.
